No constants are given. Whether binding was seen depends on the method and setting. For part of these data: Binding seen in cells or lysates may run through a third protein. Some binding calls cover weakened binding; strength is not graded here. For part of these data: Where a sequence is shown, tags or fusion partners need not be part of it.
Assays:
[1] = molecular target: mu-opioid receptor (MOR), full-length human, split-ubiquitin bait (human) (UniProt P35372); assay: two-hybrid; modified split-ubiquitin membrane yeast two-hybrid (MYTH) screen; full-length human MOR as bait (pCCW-STE), human fetal brain cDNA library as prey (pPR3-N), S. cerevisiae THY.AP4, SD -Trp/-Leu/-His/-Ade with 3AT
[2] = molecular target: MOR C-terminal domain (C-tail, residues 342-400), GAL4 DNA-binding domain fusion (human) (UniProt P35372); assay: two-hybrid; directed conventional Y2H; MOR intracellular domains in GAL4 DNA-binding domain vector pAS2-1, GPR177-CT in GAL4 activation domain vector pACT2, S. cerevisiae MAV103, beta-galactosidase filter lift
[3] = molecular target: MOR second intracellular loop (IL2, residues 166-187), GAL4 DNA-binding domain fusion (human) (UniProt P35372); assay: as above
[4] = molecular target: MOR first intracellular loop (IL1, residues 97-103), GAL4 DNA-binding domain fusion (human) (UniProt P35372); assay: as above
[5] = molecular target: MOR third intracellular loop (IL3, residues 260-282), GAL4 DNA-binding domain fusion (human) (UniProt P35372); assay: as above
[6] = molecular target: MORIL2-GST fusion protein (amino acids 166-187 of the human MOR fused to GST) (human) (UniProt P35372); assay: pull-down; MORIL2-GST fusion protein (or GST-coated beads) incubated with bacterial lysate holding S-tagged GPR177 fragment; blot with HRP-conjugated S-tag antibody; only the target purified
[7] = molecular target: MOR, endogenously expressed in PC12 cells and rat brain (rat (endogenous in PC12 cells and rat brain)) (UniProt P33535); assay: co-IP; PC12 cell lysate, endogenous proteins, precipitated with anti-MOR antibodies, blot with anti-GPR177
[8] = molecular target: MOR, endogenously expressed in PC12 cells and rat brain (rat (endogenous in PC12 cells and rat brain)) (UniProt P33535); assay: co-IP; total rat brain lysate, endogenous proteins, precipitated with anti-MOR antibodies, blot with anti-GPR177
[9] = molecular target: FLAG-tagged D2 dopamine receptor stably expressed in HEK293 cells (293-D2R cells) (UniProt P14416); assay: co-IP; lysates of 293-MOR or 293-D2R cells precipitated with anti-FLAG antibodies, blot with anti-GPR177 for the endogenous protein

Protein sequences, listed by entry. Tags and fused reporters are not part of them. Lines headed by an entry give the natural chain unless they say otherwise; changes in a name come on top. Chains listed by the source or under a name are the forms on record and can include a tag or linker. Residues count along the entry.
UniProt P35372: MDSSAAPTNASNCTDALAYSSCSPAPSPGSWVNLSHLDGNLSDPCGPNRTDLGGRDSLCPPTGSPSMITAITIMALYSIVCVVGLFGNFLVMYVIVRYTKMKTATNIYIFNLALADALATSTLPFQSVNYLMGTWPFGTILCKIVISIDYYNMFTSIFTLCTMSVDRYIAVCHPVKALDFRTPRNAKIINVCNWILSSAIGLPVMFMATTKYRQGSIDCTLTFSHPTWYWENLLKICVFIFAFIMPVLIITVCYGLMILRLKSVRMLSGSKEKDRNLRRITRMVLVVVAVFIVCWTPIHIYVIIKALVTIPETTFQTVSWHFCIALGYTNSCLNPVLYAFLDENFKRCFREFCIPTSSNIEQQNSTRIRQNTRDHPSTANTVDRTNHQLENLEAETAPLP
MORIL2-GST fusion protein (amino acids 166-187 of the human MOR fused to GST): residues 166-187 of P35372
MOR third intracellular loop (IL3, residues 260-282), GAL4 DNA-binding domain fusion: residues 260-282 of P35372
MOR C-terminal domain (C-tail, residues 342-400), GAL4 DNA-binding domain fusion: residues 342-400 of P35372
UniProt P33535: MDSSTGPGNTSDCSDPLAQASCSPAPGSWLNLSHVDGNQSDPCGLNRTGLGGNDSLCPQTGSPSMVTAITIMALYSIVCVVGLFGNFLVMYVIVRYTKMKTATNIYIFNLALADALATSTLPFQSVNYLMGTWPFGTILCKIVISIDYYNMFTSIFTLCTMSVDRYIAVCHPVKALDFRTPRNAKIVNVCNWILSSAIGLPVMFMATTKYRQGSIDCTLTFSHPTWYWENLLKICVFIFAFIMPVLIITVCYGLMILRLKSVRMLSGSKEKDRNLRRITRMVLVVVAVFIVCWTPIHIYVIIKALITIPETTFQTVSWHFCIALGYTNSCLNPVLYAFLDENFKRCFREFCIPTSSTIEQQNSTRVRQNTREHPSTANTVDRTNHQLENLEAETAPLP
UniProt P14416: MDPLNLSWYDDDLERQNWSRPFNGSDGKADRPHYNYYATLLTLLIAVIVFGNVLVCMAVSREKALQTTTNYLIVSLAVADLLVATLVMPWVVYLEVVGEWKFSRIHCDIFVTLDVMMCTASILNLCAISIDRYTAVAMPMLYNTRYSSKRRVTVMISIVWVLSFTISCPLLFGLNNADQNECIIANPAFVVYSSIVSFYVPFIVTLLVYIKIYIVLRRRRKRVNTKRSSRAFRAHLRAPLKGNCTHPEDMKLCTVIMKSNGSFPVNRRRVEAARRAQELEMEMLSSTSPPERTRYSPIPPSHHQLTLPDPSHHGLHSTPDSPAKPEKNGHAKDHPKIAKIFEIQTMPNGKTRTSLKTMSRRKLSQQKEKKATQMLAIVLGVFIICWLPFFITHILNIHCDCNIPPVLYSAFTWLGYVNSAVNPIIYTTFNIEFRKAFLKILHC

B1: GPR177 C-terminal domain (residues 451-541), split-ubiquitin prey clone (domain or fragment, UniProt Q5T9L3 451-541)
chain: IVSQVTEGHWKWGGVTVQVNSAFFTGIYGMWNLYVFALMFLYAPSHKNYGEDQSNGDLGVHSGEELQLTTTITHVDGPTEIYKLTRKEAQE
B1 was tested, and the binding [1] was “binds”.

B2: GPR177-CT (residues 451-541) in the GAL4 activation domain vector pACT2 (domain or fragment, UniProt Q5T9L3 451-541)
chain: IVSQVTEGHWKWGGVTVQVNSAFFTGIYGMWNLYVFALMFLYAPSHKNYGEDQSNGDLGVHSGEELQLTTTITHVDGPTEIYKLTRKEAQE
In the case of B2, the binding [2] is reported as “no binding”, the binding [3] is reported as “binds” and the binding [4] is reported as “no binding”. For the same binder, the binding [5] was “no binding”.

B3: S-tagged GPR177 C-terminal fragment (residues 451-541) (domain or fragment, UniProt Q5T9L3 451-541)
chain: IVSQVTEGHWKWGGVTVQVNSAFFTGIYGMWNLYVFALMFLYAPSHKNYGEDQSNGDLGVHSGEELQLTTTITHVDGPTEIYKLTRKEAQE
With B3 the binding [6] was “binds”.

B4: GPR177, endogenously expressed in PC12 cells and rat brain (protein, UniProt Q6P689 1-541)
chain: MAGAIIENMSTKKLCIVGGILLVFQIVAFLVGGLIAPAPTTAVSYVAAKCVDVRKNHHKTRWLMPWGPNKCNKINDFEEAIPREIEANDIVFSVHIPLPSMEMSPWFQFMLFILQIDIAFKLNNQIRENAEVSMDVSLGYRDDMFSEWTEMAHERVPRKLRCTFTSPKTPEHEGRHYECDVLPFMEIGSVAHKYYLLNIRLPVNEKKKINVGIGEIKDIRLVGIHQNGGFTKVWFAMKTFLTPSIFIIMVWYWRRITMMSRPPVLLEKVIFALGISMTFINIPVEWFSIGFDWTWMLLFGDIRQGIFYAMLLSFWIIFCGEHMMDQHERNHIAGYWKQVGPIAVGSFCLFIFDMCERGVQLTNPFYSIWTTDVGTELAMAFIIVAGICLCLYFLFLCFMVFQVFRNISGKQSSLPAMSKVRRLHYEGLIFRFKFLMLITLACAAMTVIFFIVSQVTEGHWKWGGVTVQVSSAFFTGIYGMWNLYVFALMFLYAPSHKNYGEDQSNGDLGVHSGEELQLTTTITHVDGPTEIYKLTRKEAQE
For B4, the binding [7] was “binds” and the binding [8] was “binds”.

B5: GPR177, endogenously expressed in HEK293-derived cells (protein, UniProt Q5T9L3 1-541)
chain: MAGAIIENMSTKKLCIVGGILLVFQIIAFLVGGLIAPGPTTAVSYMSVKCVDARKNHHKTKWFVPWGPNHCDKIRDIEEAIPREIEANDIVFSVHIPLPHMEMSPWFQFMLFILQLDIAFKLNNQIRENAEVSMDVSLAYRDDAFAEWTEMAHERVPRKLKCTFTSPKTPEHEGRYYECDVLPFMEIGSVAHKFYLLNIRLPVNEKKKINVGIGEIKDIRLVGIHQNGGFTKVWFAMKTFLTPSIFIIMVWYWRRITMMSRPPVLLEKVIFALGISMTFINIPVEWFSIGFDWTWMLLFGDIRQGIFYAMLLSFWIIFCGEHMMDQHERNHIAGYWKQVGPIAVGSFCLFIFDMCERGVQLTNPFYSIWTTDIGTELAMAFIIVAGICLCLYFLFLCFMVFQVFRNISGKQSSLPAMSKVRRLHYEGLIFRFKFLMLITLACAAMTVIFFIVSQVTEGHWKWGGVTVQVNSAFFTGIYGMWNLYVFALMFLYAPSHKNYGEDQSNGDLGVHSGEELQLTTTITHVDGPTEIYKLTRKEAQE
For B5, the binding [9] was “no binding”.

Source: publication PMC2841195
